SMILES strings stand for the structures. About 190 (3.5%) of roughly 5,400 compounds showed an effect of 50% or more. Some of the results follow.

For this experiment, the system named is Vero-E6. Description: primary screen, phospholipidosis by LipidTOX staining; higher = more effect of the substance. The following applies: 10 µM. Summed up:
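Single-concentration screen at 10 μM, with DMSO 0.1 v/v % and amiodarone 10 μM as controls. Read-out is LipidTOX Red phospholipid staining, which tolerates aldehyde fixation, in Vero-E6 cells.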
For `C[N+]1(CCCCC[N+]2(C)CCCC2)CCCC1`, the result_ITMP worked out at 1.88%.
The value for `C[C@H](NC(=O)C(C)(C)Oc1ccc(C(F)(F)F)cn1)[C@@H](Cc1ccc(Cl)cc1)c1cccc(C#N)c1` was 1.28%; that for `O=C(Nc1ccccc1)c1cc([N+](=O)[O-])ccc1Cl` was -4.43%; that for `O=C(O)[C@H](Cc1c[nH]c2ccccc12)N1C(=O)c2ccccc2C1=O` was -5.26%.
On to `C=C1C(=O)O[C@@H]2/C=C(\C)CC/C=C(\C)CC[C@@H]12`, for which the result_ITMP is listed as -1.57%.
As for `C[C@H](CCC(=O)O)[C@H]1CC[C@H]2[C@@H]3[C@H](O)C[C@@H]4C[C@H](O)CC[C@]4(C)[C@H]3C[C@H](O)[C@]12C`, the result_ITMP is on record as 0.2%.
`c1ccc2c(Cc3c[nH]c4ccccc34)c[nH]c2c1`: the result_ITMP was -4.8%.
As to `Cc1sc(N)c(C(=O)c2cccc(C(F)(F)F)c2)c1C`, the result_ITMP is on record as -2.1%.
Regarding `COc1ccc(OC)c2c(=S)c3ccccc3[nH]c12`, the result_ITMP is -1.78%.
With `COCc1c(-c2ccc(NC(=O)Nc3cc(C(F)(F)F)ccc3F)c(F)c2)c2c(N)ncnn2c1CN1CCOCC1` the figure was 0.1%; with `CCC(=O)N1CCN(c2ccc(-n3c(=O)ccc4cnc5ccc(-c6cnc7ccccc7c6)cc5c43)cc2C(F)(F)F)CC1`, -2.63%.
With `CO/N=C(\C(=O)N[C@@H]1C(=O)N2C(C(=O)OCOC(=O)C(C)(C)C)=C(/C=C\c3scnc3C)CS[C@H]12)c1csc(N)n1` the figure was 6.57%.
The value for `Cn1cnc(-c2cc3nccc(Oc4ccc(NC(=S)NC(=O)Cc5ccccc5)cc4F)c3s2)c1` was 0.11%; that for `O[C@@H](COc1cccc2ncccc12)CN1CCN([C@@H]2c3ccccc3[C@@H]3[C@H](c4ccccc42)C3(F)F)CC1` was 25.5%.
Turning to `O=c1[nH]c(=O)c2[nH]c(=O)[nH]c2[nH]1`, the result_ITMP is listed as -1.7%.
The value for `COc1ccccc1C(=O)Nc1cc2c(cc1N1CCCC1)n(C)c(=O)n2C` was -1.52%; that for `Nc1nonc1/C(=N\c1ccc(F)c(Cl)c1)NO` was 0.83%; that for `Cc1cc(-c2cc(OC(=O)c3ccccc3)ccc2Cl)cc2nnc(Nc3ccc(OCCN4CCCC4)cc3)nc12` was -1.87%.
For `CC(=O)N(O)[C@@H]1c2cc(C#N)ccc2OC(C)(C)[C@H]1O`, the result_ITMP is -6.36%.
With `O=C(CCc1ccc(O)cc1)c1c(O)cc(O)cc1O[C@@H]1O[C@H](CO)[C@@H](O)[C@H](O)[C@H]1O` the figure was -8.71%.
The value for `CC1(C)[C@@H]2CC[C@@]1(C)C(=O)C2` [R4A_0000828_001 / SPE_K15714472] was -1%; that for `CCS(=O)(=O)N(C)[C@@H]1c2cc(C#N)ccc2OC(C)(C)[C@H]1O.CCS(=O)(=O)N(C)[C@H]1c2cc(C#N)ccc2OC(C)(C)[C@@H]1O` (racemic) was -1.89%.
Take `NC[C@@H]1O[C@H](O[C@H]2[C@@H](O)[C@H](O[C@@H]3[C@@H](O)[C@H](N)C[C@H](N)[C@H]3O[C@H]3O[C@H](CN)[C@@H](O)[C@H](O)[C@H]3N)O[C@@H]2CO)[C@H](N)[C@@H](O)[C@@H]1O`: the result_ITMP is given as -2.72%.
With `CC(C)(C)NCC(O)c1cc(Cl)c(N)c(C(F)(F)F)c1` (stereo not shown) the figure was -1.04%.
Consider `COC(=O)c1cccnc1`, for which the result_ITMP was determined as 11.3%.
With `O=C(O)CC(O)C(=O)O` (stereo not shown) the figure was 0.86%; with `COC[C@H](NC(=O)c1cnc(C)s1)C(=O)N[C@@H](COC)C(=O)N[C@@H](Cc1ccccc1)C(=O)C1(C)CO1` (stereo partly shown), -1.49%; with `CCCCCCC[N+](CC)(CC)CCCCc1ccc(Cl)cc1`, 3.83%.
Turning to `CCOC(=O)C1=C[C@@H](OC(CC)CC)[C@H](NC(C)=O)[C@@H](N)C1`, the result_ITMP is on record as -4.03%.
`C=CC(=O)Nc1cccc(C)c1Nc1ncc2cc(-c3c(Cl)c(OC)cc(OC)c3Cl)ccc2n1`: the result_ITMP is given as 1.86%.
For the compound `CCc1nc2ccc(Cl)cn2c1C(=O)NCc1ccc(N2CCC(c3ccc(OC(F)(F)F)cc3)CC2)cc1`, the result_ITMP is listed as 0.2%.
With `N=C(N)NC(=N)Nc1ccccc1` the figure was -1.65%; with `Cc1cc2c(N3CCCC3)nc(N3CCCC3)nc2n1C`, -3.77%.
`NCCNC(=O)c1ccc(Cl)cn1`: the result_ITMP is listed as -5.66%.
The value for `O=C(Nc1ccc(Cl)nc1)c1ccc(Cl)cc1` was -6.45%.
The value for `Cc1ccc2c(Br)cc(Br)c(OC(=O)c3ccccc3)c2n1` was -2.36%; that for `Cc1cccc(C(=O)O)c1O` was -3.56%.
The value for `O=C(Nc1ccccc1)Nc1ccc(-c2ccc(C(=O)[C@@H]3CCC[C@H]3C(=O)O)cc2)cc1` [R4A_0000400_001 / SPE_K81614372] was -1.59%; that for `Cn1cc(C(=O)[C@@H]2CCc3nc[nH]c3C2)c2ccccc21` was 17.9%; that for `Cc1ncc(CNC(=O)N(CCCl)N=O)c(N)n1` was -2.5%.
Take `Cn1cc(/C=C2/C(=O)Nc3cccnc32)c2ccccc21`: the result_ITMP is on record as 2.75%.
With `Oc1cccc(-c2c3nc(c(-c4cccc(O)c4)c4ccc([nH]4)c(-c4cccc(O)c4)c4nc(c(-c5cccc(O)c5)c5ccc2[nH]5)CC4)C=C3)c1` the figure was -2.2%; with `Cn1nnc(-c2ccc(-c3ccc(N4C[C@H](COP(=O)(O)O)OC4=O)cc3F)cn2)n1`, 0.02%.
The value for `CC(C)NC[C@@H](O)COc1cccc2ccccc12` [R4A_0000150_002 / SPE_K92830582] was 18.8%.
With `Cc1nc(Nc2cnn(C3CCNCC3)c2)nc2c1N(C)C(=O)c1cc3ccccc3cc1N2C` the figure was 103%; with `OCCOCCN1CCN(C2=Nc3ccccc3Sc3ccccc32)CC1`, 22.1%.
For `CC(C)N1Cc2cc(S(C)(=O)=O)ccc2N(CCN2CC=C(c3c[nH]c4cc(F)ccc34)CC2)S1(=O)=O`, the result_ITMP is given as 31.4%.
As to `O=C(c1c2ccccc2cc2ccccc12)N1CCC(N2CCC[C@@H](C(=O)N3CCOCC3)C2)CC1`, the result_ITMP stood at 4.89%.
With `COc1cccc2c1C(=O)c1c(O)c3c(c(O)c1C2=O)C[C@@](O)(C(=O)CO)C[C@@H]3O[C@H]1C[C@H](N)[C@H](O)[C@H](C)O1` the figure was -5.89%; with `Cn1cnc2c(NCc3ccccc3)nc(NCCO)nc21`, -1.91%.
With `Cc1cc(C(=O)NOCCO)c(Nc2ccc(I)cc2F)n(C)c1=O` the figure was 12%.
The value for `CCOC(=O)C1=C(N)Oc2ccc(Br)cc2[C@H]1[C@H](C#N)C(=O)OCC` was -5.02%.
Take `CC1(C)S[C@@H]2[C@H](NC(=O)[C@H](N)c3ccc(O)cc3)C(=O)N2[C@H]1C(=O)O`: the result_ITMP is -0.12%.
The value for `O=C(NC1CCNCC1)[C@@H]1CC[C@@H]2CN1C(=O)N2OS(=O)(=O)O` was -2.11%; that for `CC(C)(N)c1cc(C(=O)N[C@@H]2CCc3ccc(OC4=C5CCC(=O)N=C5NC=C4)cc3C2)cc(C(F)(F)F)c1` was 28.9%; that for `CC(C)Cc1ccc(C(C)C(=O)NCCO)cc1` (stereo not shown) was -2.07%.
As for `N#Cc1c(O)c2c(-c3ccc(-c4ccccc4O)cc3)csc2[nH]c1=O`, the result_ITMP is recorded as -2.22%.
Regarding `Cc1nc2ccc(-n3ncc(C(=O)c4cc5ccccc5[nH]4)c3N)cc2[nH]1`, the result_ITMP is recorded as -0.81%.
The value for `CCCCC(=O)O[C@H]1CC[C@H]2[C@@H]3CCc4cc(O)ccc4[C@H]3CC[C@]12C` was -1.47%; that for `O=C(OC[C@H]1O[C@@H](OC(=O)c2cc(O)c(O)c(OC(=O)c3cc(O)c(O)c(O)c3)c2)[C@H](OC(=O)c2cc(O)c(O)c(OC(=O)c3cc(O)c(O)c(O)c3)c2)[C@@H](OC(=O)c2cc(O)c(O)c(OC(=O)c3cc(O)c(O)c(O)c3)c2)[C@@H]1OC(=O)c1cc(O)c(O)c(OC(=O)c2cc(O)c(O)c(O)c2)c1)c1cc(O)c(O)c(OC(=O)c2cc(O)c(O)c(O)c2)c1` was -8.08%.
The value for `N=C(N)c1ccc(OCCCCCOc2ccc(C(=N)N)cc2)cc1` was 1.76%; that for `O=c1[nH]ccc2cc(OC3CCNCC3)ccc12` was -2.35%; that for `Cn1c(NCCN(CCO)CCCc2ccc([N+](=O)[O-])cc2)cc(=O)n(C)c1=O` was 2.68%.
`N=C(N)SCCc1ccc(OCc2ccc([N+](=O)[O-])cc2)cc1`: the result_ITMP was 70%.
For the compound `Cc1[nH]c2ccccc2c1CCNC(=O)c1cccs1`, the result_ITMP amounted to 2.62%.
With `O=c1cc(-c2cccc3c2Sc2ccccc2S3)oc(N2CCOCC2)c1` the figure was -4.96%; with `c1ccc(CNCc2ccc(CN3CCCNCCNCCCNCC3)cc2)nc1`, -2%.
With `C[C@H](c1ccc2ccc(O[C@H]3CC[C@@H](C(F)(F)F)CC3)c(C(F)(F)F)c2c1)N1C2CCC1CC(C(=O)O)C2` (stereo partly shown) the figure was -0.12%; with `CCOC(=O)c1c(/C(C#N)=C\N)c2ccc(Cl)c(Cl)c2n1C`, -1.98%.
With `Fc1ccc(C(c2ccc(F)cc2)N2CCN(C/C=C/c3ccccc3)CC2)cc1`, the result_ITMP was determined as 5.83%.
With `Oc1ccc([C@H]2COc3cc(O)ccc3C2)cc1` the figure was -8.37%; with `CN1CCc2c(c3ccccc3n2Cc2ccccc2)C1`, 37.2%.
With `Cc1ccc(Nc2c(F)cccc2Cl)c(CC(=O)O)c1` the figure was -3.27%; with `O=C(O)c1cc(O)c2c(c1)C(=O)c1cccc(O)c1C2=O`, -2.48%; with `CCc1ccc(C2=CC(C)(C)Sc3ccc(C#Cc4ccc(C(=O)O)cc4)cc32)cc1`, -2.18%.
With `CCC[C@@H]1CC(=O)N([C@@H](CC)C(N)=O)C1` the figure was -1.91%.
In the case of `Cc1ccc(C(=O)c2ccc(CC(=O)[O-])n2C)cc1`, the result_ITMP is -3.18%.
With `CC1(C)CC(Oc2ccc(-c3ccc(-c4cn[nH]c4)cc3O)nn2)CC(C)(C)N1` the figure was 3.38%; with `Cc1cc(/C=C/C#N)cc(C)c1Nc1ccnc(Nc2ccc(C#N)cc2)n1`, 19.1%; with `Oc1c(Cl)cc(Cl)c(Cl)c1Cc1c(O)c(Cl)cc(Cl)c1Cl`, -0.2%.
The value for `Cc1c(N(C)C)c(=O)n(-c2ccccc2)n1C` was -4.65%; that for `C[C@]12CC[C@H](O)C[C@H]1CC[C@@H]1[C@@H]2CC[C@]2(C)[C@@H](c3ccc(=O)oc3)C[C@H]3O[C@]132` was -2.23%.

The values above are taken from PMC13083723 (Patterns, 2026).
